First the molecules themselves.
T1: RBFOX1 RRM RbFoxmut (Fox-RRM*) (Homo sapiens, UniProt Q9NWB1 109-208, R118D;E147R;N151S;E152T)
T1 sequence: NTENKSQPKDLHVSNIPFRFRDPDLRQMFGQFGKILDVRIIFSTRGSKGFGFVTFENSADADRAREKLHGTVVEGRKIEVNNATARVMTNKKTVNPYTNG

B1: UAACGGU (DNA:RNA)
RNA: GGGAGACCGGAAUUCAGAUUGUCCUAACGGUUUAAAUCCCGUCGUAGCCACCA
DNA 1: CAATCTGAATTCCGGTCTCCC
DNA 2: TGGTGGCTACGACGGGATT
B2: GGAGGAU (DNA:RNA)
RNA: B1 RNA with U25G, A26G, C28G, G30A
DNA 1: CAATCTGAATTCCGGTCTCCC
DNA 2: TGGTGGCTACGACGGGATT
B3: UUGGAAC (DNA:RNA)
RNA: B1 RNA with A26U, A27G, C28G, G29A, G30A, U31C
DNA 1: CAATCTGAATTCCGGTCTCCC
DNA 2: TGGTGGCTACGACGGGATT
B4: CAUUAGA (DNA:RNA)
RNA: B1 RNA with U25C, A27U, C28U, G29A, U31A
DNA 1: CAATCTGAATTCCGGTCTCCC
DNA 2: TGGTGGCTACGACGGGATT
B5: UCGGUCA (DNA:RNA)
RNA: B1 RNA with A26C, A27G, C28G, G29U, G30C, U31A
DNA 1: CAATCTGAATTCCGGTCTCCC
DNA 2: TGGTGGCTACGACGGGATT
B6: CUCUUCC (DNA:RNA)
RNA: GGGAGACCGGAAUUCAGAUUGUCCCUCUUCCUUAAAUCCCGUCGUAGCCACCA
DNA 1: CAATCTGAATTCCGGTCTCCC
DNA 2: TGGTGGCTACGACGGGATT
B7: AGACAGG (DNA:RNA)
RNA: B1 RNA with U25A, A26G, G29A, U31G
DNA 1: CAATCTGAATTCCGGTCTCCC
DNA 2: TGGTGGCTACGACGGGATT
B8: GUCCACG (DNA:RNA)
RNA: B6 RNA with C25G, U28C, U29A, C31G
DNA 1: CAATCTGAATTCCGGTCTCCC
DNA 2: TGGTGGCTACGACGGGATT
B9: UAGAAUG (DNA:RNA)
RNA: B1 RNA with A27G, C28A, G29A, G30U, U31G
DNA 1: CAATCTGAATTCCGGTCTCCC
DNA 2: TGGTGGCTACGACGGGATT
B10: CCUAUAG (DNA:RNA)
RNA: B6 RNA with U26C, C27U, U28A, C30A, C31G
DNA 1: CAATCTGAATTCCGGTCTCCC
DNA 2: TGGTGGCTACGACGGGATT
B11: GUGCCCG (DNA:RNA)
RNA: B6 RNA with C25G, C27G, U28C, U29C, C31G
DNA 1: CAATCTGAATTCCGGTCTCCC
DNA 2: TGGTGGCTACGACGGGATT
B12: ACUGAAU (DNA:RNA)
RNA: B1 RNA with U25A, A26C, A27U, C28G, G29A, G30A
DNA 1: CAATCTGAATTCCGGTCTCCC
DNA 2: TGGTGGCTACGACGGGATT
B13: UUUGUGC (DNA:RNA)
RNA: B6 RNA with C25U, C27U, U28G, C30G
DNA 1: CAATCTGAATTCCGGTCTCCC
DNA 2: TGGTGGCTACGACGGGATT
B14: GAUGAAA (DNA:RNA)
RNA: B1 RNA with U25G, A27U, C28G, G29A, G30A, U31A
DNA 1: CAATCTGAATTCCGGTCTCCC
DNA 2: TGGTGGCTACGACGGGATT
B15: GUGUGCA (DNA:RNA)
RNA: B6 RNA with C25G, C27G, U29G, C31A
DNA 1: CAATCTGAATTCCGGTCTCCC
DNA 2: TGGTGGCTACGACGGGATT
B16: CUAUCAU (DNA:RNA)
RNA: B6 RNA with C27A, U29C, C30A, C31U
DNA 1: CAATCTGAATTCCGGTCTCCC
DNA 2: TGGTGGCTACGACGGGATT
B17: AUUGUAU (DNA:RNA)
RNA: B6 RNA with C25A, C27U, U28G, C30A, C31U
DNA 1: CAATCTGAATTCCGGTCTCCC
DNA 2: TGGTGGCTACGACGGGATT
B18: CUUAAGU (DNA:RNA)
RNA: B6 RNA with C27U, U28A, U29A, C30G, C31U
DNA 1: CAATCTGAATTCCGGTCTCCC
DNA 2: TGGTGGCTACGACGGGATT
B19: CUAAUUG (DNA:RNA)
RNA: B6 RNA with C27A, U28A, C30U, C31G
DNA 1: CAATCTGAATTCCGGTCTCCC
DNA 2: TGGTGGCTACGACGGGATT
B20: AAUUCGA (DNA:RNA)
RNA: B1 RNA with U25A, A27U, C28U, G29C, U31A
DNA 1: CAATCTGAATTCCGGTCTCCC
DNA 2: TGGTGGCTACGACGGGATT

Residue numbers refer to the chain shown, from its start. Some of the results follow.

20 molecules from PMC9911399, “Two distinct binding modes provide the RNA-binding protein RbFox with extraordinary sequence specificity” can be followed below.

This assay addresses T1, RBFOX1 RRM RbFoxmut (Fox-RRM*). The experiment in a line: EMSA; HiTS-Eq, 1 nM pool, 10 min; buffer printed only for the single-RNA assays: 10 mM Tris pH 7.5, 150 mM NaCl, 3.4 mM EDTA, 0.001% NP-40, 30 C. As to conditions: tags: His6 N-terminal (pET28a); label: 5' 32P. In outline: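 Purified RbFox RRM, wild type or mutant, was incubated for 10 min in 50 µL with 1 nM of a 5′-radiolabelled RNA pool carrying 7 randomized nucleotides, whose flanks were annealed to DNA oligonucleotides, over a series of increasing protein concentrations. Unbound RNA was resolved on 8% native PAGE, cut out, reverse-transcribed, barcoded by PCR and sequenced on an Illumina HiSeq 2500. Relative association constants were derived from changes in read counts for each RNA species versus the control reaction and normalised to the cognate motif.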
A general note: In EMSA bound probe runs differently from free probe, usually more slowly.
Take B1: the binding signal was 0.0715 KA relative to UGCAUGU.

In the case of B2, the binding signal was 0.0724 KA relative to UGCAUGU.

In the case of B3, the binding signal was 0.0995 KA relative to UGCAUGU.

On to B4, for which the binding signal was 0.0983 KA relative to UGCAUGU.

Consider B5, for which the binding signal was 0.0953 KA relative to UGCAUGU.

In the case of B6, the binding signal is 0.0471 KA relative to UGCAUGU.

Turning to B7, the binding signal was 0.109 KA relative to UGCAUGU.

In the case of B8, the binding signal was 0.114 KA relative to UGCAUGU.

Regarding B9, the binding signal is 0.953 KA relative to UGCAUGU.

Turning to B10, the binding signal is 0.139 KA relative to UGCAUGU.

Take B11: the binding signal was 0.111 KA relative to UGCAUGU.

In the case of B12, the binding signal was 0.0559 KA relative to UGCAUGU.

Take B13: the binding signal was 0.15 KA relative to UGCAUGU.

Regarding B14, the binding signal was 0.0758 KA relative to UGCAUGU.

In the case of B15, the binding signal is 0.316 KA relative to UGCAUGU.

For the molecule B16, the binding signal is 0.127 KA relative to UGCAUGU.

B17: the binding signal was 0.199 KA relative to UGCAUGU.

As for B18, the binding signal was 0.11 KA relative to UGCAUGU.

On to B19, for which the binding signal was 0.0751 KA relative to UGCAUGU.

With B20, the binding signal is 0.0737 KA relative to UGCAUGU.
